The test system of assay [1] is RAW-Dual. The assay is described as follows: NF-kB SEAP reporter activity, fold change vs agonist alone; higher = enhanced NF-kB activity. The settings on record: library stock concentration (final ~1000-fold dilution): 10 mM, cytotoxicity flag (confluency mask): not cytotoxic. The essentials: (§1)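 Cytotoxic wells were those whose IncuCyte confluency was below 70% of agonist controls in both mask sets. The cells were RAW-Dual macrophages at 50,000 cells/well in DMEM on 384-well plates, dosed with 50 nL of library stock by pin tool, stimulated with a PRR agonist 1 h later, and kept at 37 °C, 5% CO2 for 20 hours. IRF and NF-κB reporter activity, as fold change over agonist-alone wells, came from supernatant read by QuantiLuc luminescence and QuantiBlue absorbance, respectively.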

Assay [2] has as its system RAW-Dual. The assay is described as follows: NF-kB SEAP reporter activity, fold change vs agonist alone; cytotoxicity flag (confluency mask): not cytotoxic; higher = enhanced NF-kB activity. The essentials:
as §1

The mark [3] stands for this setting: agonist: ODN 1826 (TLR9) 0.5 ug/mL.
The mark [4] stands for this setting: agonist: Pam2CSK4 (TLR2/6) 0.1 ug/mL.
Where [5] appears, read: agonist: Pam3CSK4 (TLR2/1) 0.1 ug/mL.

Several values for one entry are separate records, joined by “and”; a condition that tells them apart may be missing. Identical values can stand only once. In all, about 2,900 compounds were measured (“NF-kB SEAP reporter activity, fold change vs agonist alone”: median about 0.99, highest 2% from about 2.6 on). Some of the results follow.

As for `C=CC(=O)Nc1ccc2ncnc(Nc3ccc(OCc4cccc(F)c4)c(Cl)c3)c2c1.Cc1ccc(S(=O)(=O)O)cc1`, the “NF-kB SEAP reporter activity” value was found to be 0.818 in the assay with RAW-Dual [1] (agonist: Imiquimod (TLR7) […]) and 0.445 in the assay with RAW-Dual [1] (agonist: MPLA (TLR4) […]).

Take `COc1cc(C(C)=O)ccc1OCCCN1CCC(c2noc3cc(F)ccc23)CC1` (library stock concentration (final ~1000-fold dilution): 10 mM): the “NF-kB SEAP reporter activity” value with RAW-Dual [2] (agonist: LPS (TLR4) 0.1 ug/mL) was determined as 1.15; in the assay with RAW-Dual [2] (setting [3]), 0.717; in the assay with RAW-Dual [2] (setting [4]), 1.13; in the assay on RAW-Dual [2] (setting [5]) it was 0.978.

With `COc1cc(C(C)=O)ccc1OCCCN1CCC(c2noc3cc(F)ccc23)CC1`, the “NF-kB SEAP reporter activity” value in the assay on RAW-Dual [1] (agonist: Imiquimod (TLR7) […]) stood at 0.951; in the assay on RAW-Dual [1] (agonist: MPLA (TLR4) […]) it was 0.853.

Take `Cn1c(=O)c(Oc2ccc(F)cc2F)cc2cnc(NC(CCO)CCO)nc21`: the “NF-kB SEAP reporter activity” value with RAW-Dual [1] (agonist: Imiquimod (TLR7) […]) is 0.559; in the assay on RAW-Dual [1] (agonist: MPLA (TLR4) […]), 0.805.

With `Cn1c(=O)c(Oc2ccc(F)cc2F)cc2cnc(NC(CCO)CCO)nc21` (library stock concentration (final ~1000-fold dilution): 10 mM), the “NF-kB SEAP reporter activity” value was 0.812 in the assay on RAW-Dual [2] (agonist: LPS (TLR4) 0.1 ug/mL), 0.639 in the assay with RAW-Dual [2] (setting [3]), 0.288 with RAW-Dual [2] (setting [4]) and 0.329 in the assay on RAW-Dual [2] (setting [5]).

Take `O=C(O)Cc1ccc(O)cc1`: the “NF-kB SEAP reporter activity” value with RAW-Dual [1] (agonist: Imiquimod (TLR7) […]) was determined as 1.24; with RAW-Dual [1] (agonist: MPLA (TLR4) […]), 1.06.

Turning to `O=C(O)Cc1ccc(O)cc1` (library stock concentration (final ~1000-fold dilution): 10 mM), the “NF-kB SEAP reporter activity” value is 1.18 in the assay on RAW-Dual [2] (agonist: LPS (TLR4) 0.1 ug/mL), 1.08 with RAW-Dual [2] (setting [3]), 1.08 with RAW-Dual [2] (setting [4]) and 0.947 in the assay on RAW-Dual [2] (setting [5]).

Take `CC(C(=O)O)c1cccc(C(=O)c2ccccc2)c1` (configuration not stated) (library stock concentration (final ~1000-fold dilution): 10 mM): the “NF-kB SEAP reporter activity” value came to 1.02 in the assay on RAW-Dual [2] (agonist: LPS (TLR4) 0.1 ug/mL), 1.01 with RAW-Dual [2] (setting [3]), 1.11 in the assay with RAW-Dual [2] (setting [4]) and 1.19 in the assay on RAW-Dual [2] (setting [5]).

`CC(C(=O)O)c1cccc(C(=O)c2ccccc2)c1` (configuration not stated): the “NF-kB SEAP reporter activity” value worked out at 0.866 in the assay with RAW-Dual [1] (agonist: Imiquimod (TLR7) […]) and 1.05 with RAW-Dual [1] (agonist: MPLA (TLR4) […]).

Regarding `COc1cc2nc(N3CCN(C(=O)C4CCCO4)CC3)nc(N)c2cc1OC.Cl` (configuration not stated), in the assay with RAW-Dual [1] (agonist: MPLA (TLR4) […]), the “NF-kB SEAP reporter activity” value amounted to 1.02.

As for `COc1cc2nc(N3CCN(C(=O)C4CCCO4)CC3)nc(N)c2cc1OC.Cl` (configuration not stated) (library stock concentration (final ~1000-fold dilution): 10 mM), the “NF-kB SEAP reporter activity” value stood at 1 with RAW-Dual [2] (agonist: LPS (TLR4) 0.1 ug/mL), 1.02 in the assay with RAW-Dual [2] (setting [3]), 1.09 with RAW-Dual [2] (setting [4]) and 1.19 with RAW-Dual [2] (setting [5]).

`CCCCN(Cc1ccc(C(=O)NO)cc1)C(=O)Nc1ccccc1`: the entries for the “NF-kB SEAP reporter activity” value in the assay with RAW-Dual [1] (agonist: Imiquimod (TLR7) […]) and in the assay with RAW-Dual [1] (agonist: MPLA (TLR4) […]) were 1.52 and 2.9, respectively.

As to `CCCCN(Cc1ccc(C(=O)NO)cc1)C(=O)Nc1ccccc1` (library stock concentration (final ~1000-fold dilution): 10 mM), the “NF-kB SEAP reporter activity” value with RAW-Dual [2] (agonist: LPS (TLR4) 0.1 ug/mL) is 6.63; in the assay on RAW-Dual [2] (setting [3]), 2.5; with RAW-Dual [2] (setting [4]), 1.18; with RAW-Dual [2] (setting [5]) it was 1.73.

Consider `Cn1c(=O)cc(C(=O)Nc2ccc3c(c2)OCCO3)c2ccccc21`, for which the “NF-kB SEAP reporter activity” value in the assay on RAW-Dual [1] (agonist: Imiquimod (TLR7) […]) worked out at 0.997; with RAW-Dual [1] (agonist: MPLA (TLR4) […]), 0.999.

As to `Cn1c(=O)cc(C(=O)Nc2ccc3c(c2)OCCO3)c2ccccc21` (library stock concentration (final ~1000-fold dilution): 10 mM), the “NF-kB SEAP reporter activity” value in the assay on RAW-Dual [2] (agonist: LPS (TLR4) 0.1 ug/mL) is 0.989; with RAW-Dual [2] (setting [3]), 1.02; with RAW-Dual [2] (setting [4]) it was 0.995; in the assay on RAW-Dual [2] (setting [5]), 1.07.

For `O=C(O)c1ccc(CSc2nc(-c3ccccc3)cc(N3CCN(c4ccccc4Cl)CC3)n2)cc1`, the “NF-kB SEAP reporter activity” value worked out at 0.515 in the assay on RAW-Dual [1] (agonist: Imiquimod (TLR7) […]) and 0.868 with RAW-Dual [1] (agonist: MPLA (TLR4) […]).

For `O=C(O)c1ccc(CSc2nc(-c3ccccc3)cc(N3CCN(c4ccccc4Cl)CC3)n2)cc1` (library stock concentration (final ~1000-fold dilution): 10 mM), the “NF-kB SEAP reporter activity” value with RAW-Dual [2] (agonist: LPS (TLR4) 0.1 ug/mL) was found to be 0.736; in the assay with RAW-Dual [2] (setting [3]), 0.584; with RAW-Dual [2] (setting [4]), 0.248; in the assay with RAW-Dual [2] (setting [5]), 0.392.

For `CNC(=O)c1ccccc1Nc1nc(Nc2ccc(N3CCOCC3)cc2OC)ncc1Cl`, the entries for the “NF-kB SEAP reporter activity” value in the assay with RAW-Dual [1] (agonist: Imiquimod (TLR7) […]) and in the assay with RAW-Dual [1] (agonist: MPLA (TLR4) […]) were 0.466 and 0.594, respectively.

On to `CNC(=O)c1ccccc1Nc1nc(Nc2ccc(N3CCOCC3)cc2OC)ncc1Cl` (library stock concentration (final ~1000-fold dilution): 10 mM), for which the “NF-kB SEAP reporter activity” value in the assay with RAW-Dual [2] (agonist: LPS (TLR4) 0.1 ug/mL) came out at 0.332; in the assay on RAW-Dual [2] (setting [3]) it was 0.296; with RAW-Dual [2] (setting [4]) it was 0.134; in the assay on RAW-Dual [2] (setting [5]), 0.246.

Turning to `CC1=C(C(=O)Nc2cc3cn[nH]c3cc2F)C(c2ccc(C(F)(F)F)cc2)CC(=O)N1` (configuration not stated) (library stock concentration (final ~1000-fold dilution): 10 mM), the “NF-kB SEAP reporter activity” value in the assay with RAW-Dual [2] (agonist: LPS (TLR4) 0.1 ug/mL) is 1.24; in the assay with RAW-Dual [2] (setting [3]), 1.39; with RAW-Dual [2] (setting [4]), 1.02; in the assay on RAW-Dual [2] (setting [5]), 1.2.

With `CC1=C(C(=O)Nc2cc3cn[nH]c3cc2F)C(c2ccc(C(F)(F)F)cc2)CC(=O)N1` (configuration not stated), the “NF-kB SEAP reporter activity” value in the assay on RAW-Dual [1] (agonist: Imiquimod (TLR7) […]) turned out to be 1.13; with RAW-Dual [1] (agonist: MPLA (TLR4) […]), 1.01.

For `CCOC(=O)c1ncn2c1CN(C)C(=O)c1cc(F)ccc1-2` (library stock concentration (final ~1000-fold dilution): 10 mM), the “NF-kB SEAP reporter activity” value in the assay with RAW-Dual [2] (agonist: LPS (TLR4) 0.1 ug/mL) is 1.41; in the assay on RAW-Dual [2] (setting [3]), 0.989; in the assay with RAW-Dual [2] (setting [4]), 1.02; with RAW-Dual [2] (setting [5]), 1.1.

Regarding `CCOC(=O)c1ncn2c1CN(C)C(=O)c1cc(F)ccc1-2`, the “NF-kB SEAP reporter activity” value with RAW-Dual [1] (agonist: Imiquimod (TLR7) […]) was determined as 0.874; with RAW-Dual [1] (agonist: MPLA (TLR4) […]), 0.989.

`O=C(O)c1cc(=O)cc(C(=O)O)o1` (library stock concentration (final ~1000-fold dilution): 10 mM): the “NF-kB SEAP reporter activity” value in the assay on RAW-Dual [2] (agonist: LPS (TLR4) 0.1 ug/mL) was 1.18 and 1.16; in the assay on RAW-Dual [2] (setting [3]), 1.01 and 1.12; in the assay on RAW-Dual [2] (setting [4]) it was 1.06 and 1.14; in the assay on RAW-Dual [2] (setting [5]), 0.992 and 1.01.

As for `COc1cc(CCC(O)CC(O)CCc2ccc(O)c(OC)c2)ccc1O` (configuration not stated), the “NF-kB SEAP reporter activity” value was found to be 1.04 with RAW-Dual [1] (agonist: Imiquimod (TLR7) […]) and 1.05 in the assay with RAW-Dual [1] (agonist: MPLA (TLR4) […]).

In the case of `COc1cc(CCC(O)CC(O)CCc2ccc(O)c(OC)c2)ccc1O` (configuration not stated) (library stock concentration (final ~1000-fold dilution): 10 mM), the “NF-kB SEAP reporter activity” value in the assay on RAW-Dual [2] (agonist: LPS (TLR4) 0.1 ug/mL) is 1.41; in the assay on RAW-Dual [2] (setting [3]), 1.15; with RAW-Dual [2] (setting [4]), 1.08; with RAW-Dual [2] (setting [5]), 1.06.

Values taken from the supplement of paper PMC10037445.
